Several values for one entry are separate records, joined by “and”; a condition that tells them apart may be missing. Identical values can stand only once.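 Where inhibition never reached the appropriate level, the endpoint shown equals the highest concentration tested. Otherwise, values were interpolated linearly from a five-concentration, 48-hour dose response in 96-well plates. GI50: concentration for 50% inhibition of growth.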 Activity calls are given as the source filed them. Cut-off read from the data, not from the text of the source: active = GI50 up to about 1.1 µM and inactive = higher.
test system: NCI-H322M; test: NCI anticancer screen, dose series, 48 h

Compound	GI50
O=C1c2ccccc2-c2c1c1ccccc1c(=O)n2CCO	inactive: 18.9 µM
N#CC1=C2SCCN2C(=O)C(C#N)C12CCCCC2 (stereo unspecified)	inactive: > 100 µM
Cc1cc(C)nc(NC(=O)COc2ccc(Cl)cc2)c1	inactive: > 100 µM
C1=C(c2ccccc2)NC2=N[C@H]3CCCC[C@@H]3N2C1c1ccccc1 (stereo partly specified)	inactive: 12 µM
Clc1ccc(C2SCc3nc4ccccc4n32)cc1 (stereo unspecified)	inactive: 32.5 µM
O=C1C2=Cc3ccccc3OC2(O)Oc2ccccc21 (stereo unspecified)	inactive: > 100 µM
NC(=O)NC12CC3CC(CC(F)(C3)C1)C2	inactive: > 100 µM
S=C(NCc1ccccc1)c1nc[nH]c1C(=S)NCc1ccccc1	inactive: 6.87 µM
CC1(C)CC(=O)C(C(=O)Nc2cccs2)=C(O)C1	inactive: 57.3 µM
Cc1c(NC(=S)Nc2ccc([N+](=O)[O-])cc2)c(=O)n(-c2ccccc2)n1C	inactive: > 100 µM
O=C(NCCC1CN(C(=O)OCc2ccccc2)c2ccccc21)OCc1ccccc1 (stereo unspecified)	inactive: > 100 µM
CN1CCN(Cc2nc3c(s2)CCc2sccc2-3)CC1	inactive: > 100 µM
CNC(=O)CNC(=O)C(Cc1ccc(NC(=O)CCCCC(C)=O)cc1)NC(=O)C(CCC(=O)OCc1ccccc1)NC(=O)OC(C)(C)C (stereo unspecified)	inactive: > 100 µM
COc1ccc(/C=C2\NC(=S)N(/C=C3\C(=O)Oc4ccccc4C3=O)C2=O)cc1OC	inactive: > 100 µM
COc1cc2c(cc1OC)C1CN3CCCC3C(O)C1c1cc(OC)c(OC)cc1-2 (stereo unspecified)	inactive: > 100 µM
C=C1CCOC2(C(O)C(C)(O)CO)NC(=O)C1(O)NC2=O (stereo unspecified)	inactive: > 100 µM
O=[N+]([O-])/C(C(Cl)=C(Cl)Cl)=C(\N1CCCCC1)n1cncn1	inactive: 16.9 µM
COc1ccc(/C=N/NC(=O)CSc2nc(-c3ccccc3)c(-c3ccccc3)[nH]2)cc1OC	inactive: 32.2 µM
c1ccc2c(c1)CCN(C1=NCCO1)C2	inactive: > 10 µM
O=C(O)c1cc2ccccc2c(/N=N/c2ccccc2)c1O	inactive: 39.6 µM
CC(C)=CCc1c(C)cc2cc3c(c(O)c2c1O)C(=O)C=C(O)C3(CC=C(C)C)C/C=C(\C)CO (stereo unspecified)	inactive: 36.1 µM
O=C(/C=C/c1ccccc1Cl)c1ccc(Cl)cc1Cl	inactive: 18.5 µM
N=C(N)NCCCC(NCc1c2ccccc2[n+]([O-])c2ccccc12)C(=O)O (stereo unspecified)	inactive: 40.7 µM

Compound	GI50
C[C@H]1[C@H](C)N(Cc2ccccc2)P(=O)(C(O)/C=C/c2ccccc2)N1Cc1ccccc1 (stereo partly specified)	inactive: 9.71 µM
COc1ccc(CCCCl)c(C2=NCCc3cc(OC)c(OC)cc32)c1	inactive: > 100 µM
CCCCCCCCCCCCN1[C@H]2CCC[C@H]2C(O)[C@@H]2CCC[C@@H]21 (stereo partly specified)	inactive: > 100 µM
O=C(NCCCCCCNC(=O)n1cc(F)c(=O)[nH]c1=O)NCCCOCCOCCOCCOCCOCCOCCOCCOCCOCCOCCOCCOCCOCCOCCOCCOCCOCCOCCOCCOCCOCCCNC(=O)C(O)C(O)C(O)C(O)CO (stereo unspecified)	inactive: > 63 µM
O=C(O)c1ccccc1/C=C1/Nc2ccccc2C1=O	inactive: > 100 µM
[N-]=[N+]=C1C(=O)c2ccccc2-c2ccccc21	inactive: 31.1 µM
O=c1cc(N2CCN(c3cc(=O)n4ccccc4n3)CC2)oc2ccccc12	inactive: > 100 µM
O=C(Nc1c(O)[nH]c(=S)[nH]c1=O)c1ccccc1	inactive: > 100 µM
COc1ccc2[nH]c(C(=O)N3CC(CCl)c4ccc([N+](=O)[O-])cc43)cc2c1 (stereo unspecified)	inactive: > 100 µM
Cc1cc(C23OC4COC(C)(C)OC4C2OC(C)(C)O3)nc2ccccc12 (stereo unspecified)	inactive: > 100 µM
CC(=O)c1sc2c(c1O)c(=O)n(-c1ccccc1)c(=S)n2-c1ccccc1	inactive: > 100 µM
COC(=O)c1c2c(cc3c1CC1(Cc4cc5c(c(C(C)=O)c4C1)CCC5)C3)CCC2 (stereo unspecified)	inactive: > 100 µM
Cc1cc(Cl)ccc1N1C(=O)C(=O)C(c2nc3ccccc3s2)C(=O)C1=O	inactive: > 100 µM
C=C(Br)C(C)(Br)CCC(Br)C(C)(C)Br (stereo unspecified)	inactive: > 100 µM
COc1ccc(N[S+]([O-])c2ccccc2OC)cc1 (stereo unspecified)	inactive: 10.4 µM
CC(=O)/C=C1\Nc2ccccc2N\C1=C/C(C)=O	inactive: 29.2 µM
COc1ccc2nc3cc([N+](=O)[O-])ccc3c(Nc3ccc(S(=O)(=O)NC(C)=O)cc3)c2c1	inactive: 87.7 µM
Cn1cc(S(=O)(=O)NC(=O)Nc2ccc(Cl)cc2)c(=O)c2ccc(Cl)cc21	inactive: 20.9 µM
Cc1cc(O)nc(NNC(C#N)c2c(O)ccc3ccccc23)n1 (stereo unspecified)	inactive: 2.58 µM
CC1=C(NC(=O)/C(=N/NC(=S)NN)C2C(=O)CC(C)(C)CC2=O)C(=O)c2ccccc2C1=O	inactive: 17.7 µM
COc1ccc([C@]23CCC4(OCC(C)(C)CO4)[C@H]4CON(O[C@H](O[C@@H]5CCCCC5C(C)(C)c5ccccc5)C2)[C@@H]43)cc1OC (stereo partly specified)	inactive: > 100 µM
N#C/C=c1/c2ccccc2n2nc3ccccc3c12	inactive: 27.2 µM
c1nc2cscc2c2cscc12	inactive: > 100 µM

Compound	GI50
COc1cc(/C=C2\[C@H]3c4c(c(OC)c(C)c(OC)c4OC)C[C@@H](C(=O)N2Cc2ccccc2)N3C(=O)OCC(C)C)c(OC)c(C)c1OC	inactive: > 100 µM
O=C1CC(=O)NC(NN2C(=O)/C(=C/c3ccc(Cl)cc3)N=C2c2ccccc2)=N1	inactive: 21.1 µM
Nc1ccc2nc3n(c(=O)c2c1)CCCCC3	inactive: > 100 µM
O=c1cn[nH]c(=S)n1/N=C/c1c[nH]c2ccccc12	inactive: > 100 µM
COc1cc(CC2CC(c3ccc4c(c3)OCO4)OC2=O)cc(OC)c1OC (stereo unspecified)	inactive: > 100 µM
COc1cccc(NC(=O)CSc2nnc(Cc3ccccc3)o2)c1	inactive: > 100 µM
CC1OC(OC2C(OC(=O)[C@]34CCC(C)(C)C[C@H]3C3=CC[C@@H]5[C@@]6(C)CC[C@H](OC7OC(C(=O)O)C(O)C(O)C7O)C(C)(C)[C@@H]6CC[C@@]5(C)[C@]3(C)CC4)OCC(O)C2O)C(O)C(O)C1OC1OCC(O)C(O)C1O (stereo partly specified)	inactive: 19.5 µM and inactive: 36.9 µM
CCOC(=O)Oc1ccc2c(c1)c(=O)c1c(NCCN(CC)CC)ccc3nnn2c31	inactive: 1.71 µM
C#C[C@]1(O)CC[C@H]2[C@@H]3CCC4=C/C(=N/OC(=O)c5cccc6cc7ccccc7nc56)CC[C@@H]4[C@H]3CC[C@@]21CC	inactive: > 100 µM
FC(F)(F)C1=NC(=NNc2nnc(-c3ccccc3)c(-c3ccccc3)n2)N=C(C(F)(F)F)C1	inactive: 15.8 µM
CC1CCC(=O)C(C(=O)CC2CC(=O)NC(=O)C2)C1 (stereo unspecified)	inactive: > 100 µM
Clc1ccc(OCc2nnc3n2N=C(c2ccccc2)CS3)cc1	inactive: > 10 µM
C=CCSC1=N/C(=C\c2ccco2)C(=O)N1CC=C	inactive: > 100 µM
Cc1c2c(n3c(nc4ccccc43)c1C#N)NCC2	inactive: > 10 µM
Cc1c(C#N)c(N)n(C2OCC(O)C(O)C2O)c(=S)c1C#N (stereo unspecified)	inactive: > 100 µM
NC(=O)/C=C/C(=O)O	inactive: > 5000 µM
O=C1/C(=C/c2ccco2)NC(=S)N1CN1CCOCC1	inactive: > 100 µM
CC(C)(C)c1cc(C(C)(C)C)c(P=C(Cl)Cl)c(C(C)(C)C)c1 (stereo unspecified)	inactive: > 100 µM
CCOC(=O)NN(C(=O)OCC)C(=C(c1ccccc1)N1CCOCC1)N(NC(=O)OCC)C(=O)OCC	inactive: > 100 µM
CCCCCCCC/C=C\CCCCCCCC(=O)OC[C@]1(CO)CCC(=O)O1	inactive: > 100 µM
CS(=O)(=O)c1nc(-c2cc3c(c(S(C)(=O)=O)n2)CCCC3)cc2c1CCCCC2	inactive: > 100 µM
NC(=O)NC(=O)c1cccc(NC(=O)CF)c1	inactive: > 100 µM
O=C1OC[C@H]2[C@@H]1[C@H]1O[C@@H]2C2=C(CCC2)C1=O	inactive: > 100 µM

Compound	GI50
COc1cc2cc3c4c(cc(OC)c(OC)c4c2cc1OC)CCN3C(=O)CCC(=O)O	inactive: > 100 µM
O=C1CCC2(CC1CCSc1ccccc1)OCCO2 (stereo unspecified)	inactive: > 100 µM
Cc1cccc(C)c1N1C(=O)C(=O)C(c2nc3ccccc3s2)/C(=N/NC(=O)NN)C1=O (stereo unspecified)	inactive: > 100 µM
CCN(CC)CCOC(=O)Cc1cccc2c(=O)cc(-c3ccccc3)oc12	inactive: 54.6 µM
CCOC(=O)c1[nH]cc(C)c1-c1c[nH]c2ccccc12	inactive: 33.3 µM
N#Cc1cc2c(cc1Cl)Sc1nccn1S2(=O)=O	inactive: 3.17 µM
COc1cccc(-n2c(N)c(-c3nc4cc(C(F)(F)F)ccc4s3)c3ccc([N+](=O)[O-])cc3c2=O)c1	inactive: > 100 µM
CN(C)c1ccc(/C=C/C(=O)c2cc(C(C)(C)C)c(O)c(C(C)(C)C)c2)cc1	inactive: 1.66 µM
C=C1NC(=O)C(CC(C(=O)C(=O)Nc2c(C)cccc2C(C)(C)C)C(=O)c2ccc3ccccc3c2)C(=O)N1 (stereo unspecified)	inactive: > 100 µM
N#C/C(=C\c1ccccc1O)C(N)=O	inactive: 49.1 µM
Cc1cc(=O)n2c3c(c4c(cc13)c(CO)cc(=O)n4C)OC2	inactive: 6.04 µM
CNC(=O)C1(C#N)C(c2ccccc2)C(C#N)(C(=O)NC)C1c1ccccc1 (stereo unspecified)	inactive: > 100 µM
Cc1c(-c2ccccc2)c(=O)oc2ccc(Cl)cc12	inactive: > 100 µM
COC(=O)C(C)NP(=O)(N1CC1)N1CC1 (stereo unspecified)	inactive: > 100 µM
Clc1sc(Cl)c2c1[C@@H](Cl)C[C@@H]2Cl	inactive: > 100 µM
CC1CCC2[C@@H](C)COC3O[C@]4(C)CCC1C32OO4 (stereo partly specified)	inactive: > 100 µM
COc1cc2c(c(OC)c1OC)-c1ccc(SC)c(=O)cc1[C@@H](NC(=O)c1cccc([N+](=O)[O-])c1)CC2	active: 0.0353 µM
CC(C)CCC[C@@H](C)C1CCC2[C@@H]3CCC4CC(CCC=C(c5cc(Cl)c(OC(=O)c6ccccc6)c(C(=O)O)c5)c5cc(Cl)c(OC(=O)c6ccccc6)c(C(=O)O)c5)CC[C@]4(C)C3CC[C@@]21C (stereo partly specified)	inactive: 74.5 µM
CC1=C(N2CC2)C(=O)c2nc3n(c2C1=O)CCC3OC(=O)CCl (stereo unspecified)	active: 0.075 µM
O=C1c2ccccc2S(=O)(=O)c2ccccc21	inactive: > 100 µM
O=c1ssc2ncccc12	inactive: 36.6 µM
Oc1cnnc2nc3ccccc3n12	inactive: > 100 µM

From ChEMBL document CHEMBL1201862, “PubChem BioAssay data set” (2004)
